Holding throughout (assay): Viability of human cancer cell lines after 72 h of drug (GDSC screen)
Compound in one assay: COc1cc2c(Oc3ccc(NC(=O)C4(C(=O)Nc5ccc(F)cc5)CC4)cc3F)ccnc2cc1OCCCN1CCOCC1 [XL-880]
The conditions noted are these: top dose 5.12 µM; top dose inferred. The method, then:
(§1)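 Human cancer cell lines in 384-well plates, medium with 10% serum, drug for 72 h over a 256-fold dose range (nine 2-fold or five 4-fold steps up to the top dose). Adherent lines were fixed and stained with the nucleic acid dye Syto60, suspension lines read with resazurin; signal relative to control wells, capped at 0 and 100%. One two-parameter sigmoid per drug and line, fitted in a mixed model over all curves with the slope shared within a line.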

Compound in a further assay: Cn1nnc2c(C(N)=O)ncn2c1=O [Temozolomide]
The conditions noted are these: top dose 30 µM. The method, then: as §1

Compound in another assay: Oc1ccc2ccccc2c1SSc1c(O)ccc2ccccc12 [IPA-3]
To be noted: top dose 32 µM; top dose inferred. On the procedure: as §1

Compound in the next assay: CN1CCc2c(c3ccccc3n2Cc2ccc(C(=O)NO)cc2)C1 [Tubastatin A]
The conditions noted are these: top dose 20 µM. The method, then:
as §1

Compound in another assay: O=C(NOCC1CC1)c1ccc(F)c(F)c1Nc1ccc(I)cc1Cl [CI-1040]
The conditions noted are these: top dose 10 µM; top dose inferred. On the procedure: as §1

Compound in a further assay: CN(C)C/C=C/C(=O)Nc1ccc(C(=O)Nc2cccc(Nc3nccc(-c4cccnc4)n3)c2)cc1 [ZG-10]
To be noted: top dose 10 µM; top dose inferred. The method, then:
as §1

IC50 is the fitted dose that halves viability relative to control wells, and lower means more sensitive; where the fit passes the top or lowest dose, that dose stands as a limit. AUC is the area under the same curve over the 256-fold range up to the top dose, as a fraction; the more sensitive the line, the further below 1. For part of these data: An inferred top dose was calculated from the reported fits. Where only a bound is given, the exact number is not on record here.

Regarding CAL-27 (head and neck, adherent), the AUC in the assay with XL-880 turned out to be 0.755; in the assay with Temozolomide, 0.961; with IPA-3, 0.838; with Tubastatin A it was 0.944; with CI-1040, 0.561; with ZG-10 it was 0.637. For the same cell line, the IC50 in the assay with XL-880 was 1.76 µM; with Temozolomide, more than 30 µM; in the assay with IPA-3 it was 22.2 µM; in the assay with Tubastatin A it was more than 20 µM; with CI-1040, 0.922 µM; with ZG-10 it was 1.5 µM.
OVCAR-8 (ovary, adherent): the AUC with XL-880 was 0.605; with Temozolomide it was 0.988; with IPA-3 it was 0.99; with Tubastatin A it was 0.804; in the assay with CI-1040, 0.89; in the assay with ZG-10 it was 0.731. Also, the IC50 was 0.6 µM in the assay with XL-880; more than 30 µM with Temozolomide; more than 32 µM with IPA-3; 8.77 µM in the assay with Tubastatin A; 9.42 µM with CI-1040; 2.6 µM with ZG-10.
Regarding 8305C (thyroid, adherent), the AUC with XL-880 was determined as 0.879; with Temozolomide, 0.977; with IPA-3, 0.687; in the assay with Tubastatin A, 0.982; with CI-1040, 0.734; with ZG-10, 0.855. For the same cell line, the IC50 was more than 5.12 µM in the assay with XL-880; more than 30 µM with Temozolomide; 7.94 µM in the assay with IPA-3; more than 20 µM with Tubastatin A; 3.63 µM in the assay with CI-1040; more than 10 µM with ZG-10.
Consider UACC-62 (melanoma, adherent), for which the AUC in the assay with XL-880 was found to be 0.87; with Temozolomide, 0.966; in the assay with IPA-3, 0.988; with Tubastatin A, 0.985; in the assay with CI-1040, 0.904; with ZG-10, 0.697. For the same cell line, the IC50 with XL-880 is 4.68 µM; with Temozolomide, more than 30 µM; in the assay with IPA-3, more than 32 µM; with Tubastatin A, more than 20 µM; in the assay with CI-1040 it was more than 10 µM; with ZG-10, 2.21 µM.
Consider BHT-101 (thyroid, adherent), for which the AUC with XL-880 worked out at 0.585; in the assay with Temozolomide, 0.906; with IPA-3, 0.919; in the assay with Tubastatin A it was 0.932; with CI-1040, 0.395; in the assay with ZG-10, 0.808. The IC50 with XL-880 is 0.55 µM; with Temozolomide, more than 30 µM; in the assay with IPA-3, more than 32 µM; in the assay with Tubastatin A, more than 20 µM; in the assay with CI-1040, 0.319 µM; in the assay with ZG-10, 5.39 µM.
Take “SBC-3 (small cell lung carcinoma, adherent)”: the AUC in the assay with XL-880 was determined as 0.367; with Temozolomide, 0.988; with IPA-3, 0.785; with Tubastatin A, 0.673; in the assay with CI-1040, 0.928; in the assay with ZG-10, 0.657. For the same cell line, the IC50 in the assay with XL-880 was 0.142 µM; with Temozolomide, more than 30 µM; with IPA-3 it was 12.4 µM; with Tubastatin A, 3.61 µM; with CI-1040 it was more than 10 µM; in the assay with ZG-10, 1.63 µM.
Regarding D-542MG (glioma, adherent), the AUC in the assay with XL-880 came out at 0.71; in the assay with Temozolomide, 0.982; in the assay with IPA-3, 0.811; with Tubastatin A it was 0.966; with CI-1040, 0.984; in the assay with ZG-10, 0.781. For the same cell line, the IC50 with XL-880 was 1.45 µM; in the assay with Temozolomide it was more than 30 µM; with IPA-3, 21.9 µM; with Tubastatin A, more than 20 µM; with CI-1040, more than 10 µM; with ZG-10, 5.15 µM.
In the case of OVTOKO (ovary, adherent), the AUC stood at 0.655 with XL-880; 0.973 with Temozolomide; 0.93 with IPA-3; 0.943 with Tubastatin A; 0.815 with CI-1040; 0.773 with ZG-10. The IC50 in the assay with XL-880 is 0.97 µM; with Temozolomide it was more than 30 µM; with IPA-3 it was more than 32 µM; in the assay with Tubastatin A it was more than 20 µM; with CI-1040, 7.45 µM; in the assay with ZG-10, 5 µM.
Turning to HuH-7 (liver, adherent), the AUC stood at 0.841 with XL-880; 0.986 in the assay with Temozolomide; 0.983 with IPA-3; 0.96 in the assay with Tubastatin A; 0.839 with CI-1040; 0.804 with ZG-10. Also, the IC50 with XL-880 is 3.55 µM; with Temozolomide, more than 30 µM; in the assay with IPA-3 it was more than 32 µM; with Tubastatin A, more than 20 µM; with CI-1040, 6.79 µM; with ZG-10 it was 4.97 µM.
On to EN (endometrium, adherent), for which the AUC with XL-880 was 0.662; in the assay with Temozolomide, 0.975; with IPA-3 it was 0.984; with Tubastatin A it was 0.932; with CI-1040 it was 0.94; with ZG-10, 0.77. For the same cell line, the IC50 is 1.02 µM with XL-880; more than 30 µM with Temozolomide; more than 32 µM with IPA-3; more than 20 µM in the assay with Tubastatin A; more than 10 µM with CI-1040; 4.84 µM with ZG-10.
As to “NCI-H1688 (small cell lung carcinoma, adherent)”, the AUC with XL-880 amounted to 0.609; in the assay with Temozolomide it was 0.984; with IPA-3 it was 0.98; in the assay with Tubastatin A, 0.97; with CI-1040 it was 0.981; with ZG-10, 0.892. Besides, the IC50 with XL-880 was 0.661 µM; in the assay with Temozolomide it was more than 30 µM; with IPA-3 it was more than 32 µM; in the assay with Tubastatin A it was more than 20 µM; with CI-1040, more than 10 µM; with ZG-10 it was more than 10 µM.

(Values after the supplement of paper PMC4967469.)
